From the supplement of paper PMC8728848 come the findings set out here.

This is one part of the list.

Holding throughout (assay): glycan array binding signal (z-score within array); higher = stronger binding
What all share (settings): glycan notation: IUPAC condensed, linker removed

The target in test [1] is GlcNAc(b1-2)Gal(b1-3)GalNAc. The method in brief: (§1)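 Glycan array data were curated from 3228 arrays in the Consortium for Functional Glycomics database and kept only where the protein sequence was available. Glycan names were converted to IUPAC-condensed notation, and columns mapping to the same glycan were averaged. The binding signal is a within-array Z-score, averaged across arrays of the same protein sequence at different concentrations or buffers and across linkers. Negative Z-scores can be read as non-binding.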

Test [2] has as its target GlcNAc(b1-2)Man(a1-3)[GlcNAc(b1-2)Man(a1-6)]Man(b1-4)GlcNAc(b1-4)GlcNAc. The method in brief:
as §1

The target of test [3] is GlcNAc(b1-2)Man(a1-3)[GlcNAc(b1-2)Man(a1-6)]Man(b1-4)GlcNAc(b1-4)[Fuc(a1-6)]GlcNAc. The method in brief: as §1
The target of test [4] is GlcNAc(b1-2)Man(a1-3)[GlcNAc(b1-4)][GlcNAc(b1-2)Man(a1-6)]Man(b1-4)GlcNAc(b1-4)GlcNAc. The method in brief:
as §1

Test [5] deals with GlcNAc(b1-2)Man(a1-3)[GlcNAc(b1-4)][GlcNAc(b1-2)Man(a1-6)]Man(b1-4)GlcNAc(b1-4)[Fuc(a1-6)]GlcNAc. In outline: as §1
For test [6], the target named is GlcNAc(b1-2)[GlcNAc(b1-4)]Man(a1-3)[GlcNAc(b1-2)Man(a1-6)]Man(b1-4)GlcNAc(b1-4)GlcNAc. In outline:
as §1

The target of test [7] is GlcNAc(b1-2)[GlcNAc(b1-4)]Man(a1-3)[GlcNAc(b1-4)][GlcNAc(b1-2)Man(a1-6)]Man(b1-4)GlcNAc(b1-4)GlcNAc. In outline:
as §1

The target in test [8] is GlcNAc(b1-2)[GlcNAc(b1-4)]Man(a1-3)[GlcNAc(b1-4)][GlcNAc(b1-2)[GlcNAc(b1-6)]Man(a1-6)]Man(b1-4)GlcNAc(b1-4)GlcNAc. The method in brief: as §1
For test [9], the target named is GlcNAc(b1-2)[GlcNAc(b1-4)]Man(a1-3)[GlcNAc(b1-4)][GlcNAc(b1-2)[GlcNAc(b1-6)]Man(a1-6)]Man(b1-4)GlcNAc(b1-4)[Fuc(a1-6)]GlcNAc. In outline:
as §1

The target of test [10] is GlcNAc(b1-2)[GlcNAc(b1-6)]Man(a1-6)[GlcNAc(b1-2)Man(a1-3)]Man(b1-4)GlcNAc(b1-4)GlcNAc. The method in brief: as §1
Test [11] concerns the target GlcNAc(b1-2)[GlcNAc(b1-6)]Man(a1-6)[GlcNAc(b1-2)Man(a1-3)]Man(b1-4)GlcNAc(b1-4)[Fuc(a1-6)]GlcNAc. The method in brief: as §1
In test [12] the target is GlcNAc(b1-2)[GlcNAc(b1-6)]Man(a1-6)[GlcNAc(b1-4)][GlcNAc(b1-2)Man(a1-3)]Man(b1-4)GlcNAc(b1-4)GlcNAc. The method in brief: as §1
A further test deals with GlcNAc(b1-3)Fuc. In outline:
as §1

A further test has as its target GlcNAc(b1-3)Gal. In outline:
as §1

Test [13] has as its target GlcNAc(b1-3)Gal(b1-3)GalNAc. The method in brief:
as §1

For another test, the target named is GlcNAc(b1-3)Gal(b1-4)Glc. In outline:
as §1

For test [14], the target named is GlcNAc(b1-3)Gal(b1-4)GlcNAc. In outline: as §1
In test [15] the target is GlcNAc(b1-3)Gal(b1-4)GlcNAc(b1-2)Man(a1-3)[GlcNAc(b1-3)Gal(b1-4)GlcNAc(b1-2)Man(a1-6)]Man(b1-4)GlcNAc(b1-4)GlcNAc. In outline:
as §1

The target of test [16] is GlcNAc(b1-3)Gal(b1-4)GlcNAc(b1-2)Man(a1-3)[GlcNAc(b1-3)Gal(b1-4)GlcNAc(b1-2)Man(a1-6)]Man(b1-4)GlcNAc(b1-4)[Fuc(a1-6)]GlcNAc. The method in brief: as §1
The target of test [17] is GlcNAc(b1-3)Gal(b1-4)GlcNAc(b1-2)[GlcNAc(b1-3)Gal(b1-4)GlcNAc(b1-6)]Man(a1-6)[GlcNAc(b1-3)Gal(b1-4)GlcNAc(b1-2)Man(a1-3)]Man(b1-4)GlcNAc(b1-4)GlcNAc. The method in brief:
as §1

Test [18] deals with GlcNAc(b1-3)Gal(b1-4)GlcNAc(b1-3)Gal(b1-4)GlcNAc. The method in brief:
as §1

Test [19] deals with GlcNAc(b1-3)Gal(b1-4)GlcNAc(b1-3)Gal(b1-4)GlcNAc(b1-2)Man(a1-3)[GlcNAc(b1-3)Gal(b1-4)GlcNAc(b1-3)Gal(b1-4)GlcNAc(b1-2)Man(a1-6)]Man(b1-4)GlcNAc(b1-4)GlcNAc. The method in brief: as §1

B1: FimA-N3 (Actinomyces oris) (protein)
chain: MHHHHHHSSGVDLGTENLYFQSNAGLQGAQFQLYKAKNAYANTCSNEKEGAPIAINGQTTLTTDAQGAIDIKGLFISDSIDGADRDNQVNAMERCYVLVETKAPAGYVLPAGNGAATPVKVKAGEETTDN
For the molecule B1, the “glycan array binding signal (z-score)” value in test [1] is -0.175; in test [2], -0.143; in test [3], 0.297; in test [4], -0.204; in [5] it was -0.202; in test [6], -0.565. In addition, the “glycan array binding signal (z-score)” value was -0.59 in [7]; -0.605 in test [8]; -0.394 in test [9]; -0.636 in test [10]; -0.252 in [11]; -0.405 in test [12]. Further, the “glycan array binding signal (z-score)” value with GlcNAc(b1-3)Fuc was 3.03; with GlcNAc(b1-3)Gal it was -0.452; in [13] it was -0.138; in the test with GlcNAc(b1-3)Gal(b1-4)Glc, -0.359; in [14] it was -0.339; in [15], -0.324. In addition, the “glycan array binding signal (z-score)” value is 0.925 in [16], -0.443 in test [17], -0.366 in test [18] and 0.239 in [19].
